Data taken from PubChem BioAssay AID504332 (National Center for Advancing Translational Sciences (NCATS), 2011).
In all, about 350,000 compounds went through this assay and about 31,000 (8.9%) were called active. Inconclusive results, whose numbers are uncertain, are shown with a selection of clear calls. The call rests on the fitted dose curve; in most records, active means well fitted inhibition curve with a large enough effect; inconclusive means small, poorly fitted or top-dose-only effect; inactive means no such curve, though single readings can be large or run the other way. Potencies of inconclusive entries are doubtful fits and often do not repeat.

molecular target: Histone-lysine N-methyltransferase EHMT2 (Homo sapiens) (UniProt Q96KQ7); assay: qHTS Assay for Inhibitors of Histone Lysine Methyltransferase G9a; details: G9a H3K9 monomethylation, AlphaScreen, 2 h; activity, negative = inhibition: at 59 µM (top of the series) unless noted; further: nearly all actives have a fitted effect of over 75% in size
Chain of UniProt Q96KQ7 (Q96KQ7 whole entry, looked up): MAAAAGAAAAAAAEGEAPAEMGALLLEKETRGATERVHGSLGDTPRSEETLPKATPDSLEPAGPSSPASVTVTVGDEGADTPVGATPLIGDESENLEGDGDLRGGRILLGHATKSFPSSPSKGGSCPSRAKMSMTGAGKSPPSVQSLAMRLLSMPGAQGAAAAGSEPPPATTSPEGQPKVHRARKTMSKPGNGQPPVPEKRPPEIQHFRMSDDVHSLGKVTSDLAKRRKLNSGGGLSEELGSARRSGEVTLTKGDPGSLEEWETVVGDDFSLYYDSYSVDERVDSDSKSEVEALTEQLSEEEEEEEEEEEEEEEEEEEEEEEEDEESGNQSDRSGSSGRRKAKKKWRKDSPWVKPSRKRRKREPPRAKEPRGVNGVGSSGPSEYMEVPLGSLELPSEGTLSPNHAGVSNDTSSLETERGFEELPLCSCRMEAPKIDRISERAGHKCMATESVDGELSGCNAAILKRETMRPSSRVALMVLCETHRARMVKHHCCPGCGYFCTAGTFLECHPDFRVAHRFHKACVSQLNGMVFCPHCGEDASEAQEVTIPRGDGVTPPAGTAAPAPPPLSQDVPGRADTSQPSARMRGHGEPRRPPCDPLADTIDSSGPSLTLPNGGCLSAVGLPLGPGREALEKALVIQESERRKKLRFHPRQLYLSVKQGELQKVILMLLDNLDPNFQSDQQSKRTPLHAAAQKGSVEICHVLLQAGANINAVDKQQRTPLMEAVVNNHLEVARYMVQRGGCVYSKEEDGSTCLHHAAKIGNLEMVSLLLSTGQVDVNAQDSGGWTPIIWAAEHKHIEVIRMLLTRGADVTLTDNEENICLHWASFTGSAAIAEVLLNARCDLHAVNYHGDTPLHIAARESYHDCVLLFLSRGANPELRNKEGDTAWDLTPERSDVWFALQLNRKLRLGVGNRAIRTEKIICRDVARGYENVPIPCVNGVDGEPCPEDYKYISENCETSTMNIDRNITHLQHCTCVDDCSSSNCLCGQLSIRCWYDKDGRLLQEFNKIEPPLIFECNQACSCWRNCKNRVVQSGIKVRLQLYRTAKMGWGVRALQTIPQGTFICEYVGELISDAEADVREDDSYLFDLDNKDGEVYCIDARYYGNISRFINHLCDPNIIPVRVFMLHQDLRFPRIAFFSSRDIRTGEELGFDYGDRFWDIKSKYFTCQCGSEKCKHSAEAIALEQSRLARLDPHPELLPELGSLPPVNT
Summary of the method: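 Quantitative HTS format: methyltransferase activity on a biotin-tagged H3K9 peptide is measured by AlphaScreen, using a rabbit anti-monomethyl-H3K9 antibody with streptavidin donor and anti-IgG acceptor beads. Final levels are 20 nM enzyme, 500 nM peptide, 20 uM SAM; 2 h RT.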
On the % scale 0 is the no-effect control and ±100 the full control effect; potency means the concentration at half of the fitted maximal effect; tags describe the fitted curve by direction and shape.

Row | Compound | Potency | activity, negative = inhibition
1 | O=C1OCc2ccc(NC(=O)c3ccccc3C(=O)O)cc21 | inconclusive: 89.1 µM [inhibitor, single point] | –
2 | CC(C)(C)c1ccc(OCC(=O)NNC(=O)C2CCCO2)cc1 (configuration not stated) | inconclusive: 3.98 µM [inhibitor, partial curve, poor fit] | –
3 | COc1cccc(NC(=O)CN(C)C(C)C(=O)N2CCCC2)c1 (configuration not stated) | – | inactive: -1.38% [at 12.7 µM]
4 | Cc1cccc(NC(=O)CSCC(=O)Nc2cc(Cl)ccc2N2CCN(C)CC2)c1 | active: 79.4 µM | –
5 | CCn1cnc2cc(NCc3ccncc3)ccc21 | inconclusive: 0.708 µM [inhibitor, single point] | –
6 | COc1ccc(-c2noc(-c3ccc(NCc4ccco4)c([N+](=O)[O-])c3)n2)cc1OC | inactive | –
7 | O=C(Cc1ccccc1)Nc1cccc(N2CCCC2)c1 | – | inactive: -2% [at 12.7 µM]
8 | Cc1c(C(=O)O)oc2ccc(S(=O)(=O)NCc3ccc(F)cc3)cc12 | inconclusive: 89.1 µM [inhibitor, partial curve, poor fit] | –
9 | Cc1cnc(C(=O)N2CCCC(C(=O)c3ccc(C(F)(F)F)cc3)C2)cn1 (configuration not stated) | active: 22.4 µM | –
10 | Cc1cccc(CNC(=O)CCCN2C(=O)c3cccnc3Oc3ccccc32)c1 | inactive | –
11 | O=C1CC(c2ccco2)Cc2c1cnn2-c1nc2ccccc2s1 (configuration not stated) | inconclusive: 17.8 µM [inhibitor, single point] | –
12 | O=C(CSc1oc(-c2cccs2)nc1S(=O)(=O)c1ccccc1)Nc1ccc(F)cc1 | inconclusive: 35.5 µM [inhibitor, partial curve, poor fit] | –
13 | O=S(=O)(Nc1nc2ccccc2nc1N1CCc2ccccc2C1)c1ccc(Br)cc1 | active: 8.91 µM | –
14 | CCOC(=O)c1[nH]c2ccc(F)cc2c1NC(=O)C(C)N1CCc2cc(OC)c(OC)cc2C1 (configuration not stated) | inconclusive: 2.82 µM [inhibitor, partial curve, poor fit] | –
15 | CC(C)c1ccc(NC(=S)Nc2cccc3ccccc23)cc1 | inconclusive: 56.2 µM [inhibitor, single point] | –
16 | c1c2c(cc3sc(N4CCOCC4)nc13)OCCO2 | inconclusive: 14.1 µM [inhibitor, full curve, poor fit] | –
17 | COc1ccc(-c2csc(NC(=O)Nc3ccccc3)n2)cc1 | inactive | –
18 | CC(C)C(CCNCc1ccccn1)c1ccc(Cl)cc1 (configuration not stated) | inconclusive: 79.4 µM [inhibitor, single point] | –
19 | OC(C#CCN1CCCCC1)c1ccccc1 (configuration not stated) | inconclusive: 39.8 µM [inhibitor, single point] | –
20 | CN(CCc1ccccc1)C1CCCN(S(=O)(=O)CC(F)(F)F)C1 (configuration not stated) | inconclusive: 1.78 µM [inhibitor, full curve] | –
21 | O=[N+]([O-])c1ccc(N2CCN(Cc3ccccc3)CC2)nc1 | inconclusive: 79.4 µM [inhibitor, partial curve, poor fit] | –
22 | CCCCOc1ccc(-c2nc(=S)[nH][nH]2)cc1 | active: 1.26 µM | –
23 | O=C(Cc1ccccc1)Nc1cccc([N+](=O)[O-])c1 | inconclusive: 50.1 µM [inhibitor, partial curve, poor fit] | –
24 | O=C(c1ccc(Br)cc1)N1CCC(C(=O)N2CCN(c3ccccc3)CC2)CC1 | inconclusive: 89.1 µM [inhibitor, single point] | –

Row | Compound | Potency | activity, negative = inhibition
25 | O=S(=O)(NCc1ccco1)c1ccc2c(c1)Cc1ccccc1-2 | – | inconclusive: -99.5% [inhibitor]
26 | Cc1nc2ccccc2nc1SCC(=O)c1ccccc1 | inconclusive: 22.4 µM [inhibitor, single point] | –
27 | Cc1ccc(N=Cc2c(O)cc(C)oc2=O)c(C)c1 | inconclusive: 56.2 µM [inhibitor, partial curve] | –
28 | COc1ccc(OC)c(CCNC(=O)CSc2ccsc2[N+](=O)[O-])c1 | active: 31.6 µM | –
29 | NC(c1ccccc1)c1ccncc1 (configuration not stated) | active: 44.7 µM | –
30 | COc1ccc(C(=O)CC2(O)C(=O)N(CCc3ccccc3)c3ccc(Br)cc32)cc1OC (configuration not stated) | inconclusive: 3.98 µM [inhibitor, partial curve, poor fit] | –
31 | COc1cc(/C=C2\CCn3c2nc2cc(C(=O)O)ccc2c3=O)ccc1OC(F)F | active: 89.1 µM | –
32 | COc1ccc(C)cc1NC(=O)CCNC(=O)Cn1cnc2ccccc2c1=O | inactive | –
33 | CCOP(=O)(c1ccc(N(C)C)cc1)C(O)c1cc(OC)c(OC)c(OC)c1 (configuration not stated) | – | inconclusive: -76.1% [inhibitor]
34 | Nc1ccc2oc(-c3ccccc3Cl)nc2c1 | inactive | –
35 | O=[N+]([O-])c1cc([N+](=O)[O-])c2nonc2c1Nc1ccccc1O | inconclusive: 39.8 µM [inhibitor, partial curve, poor fit] | –
36 | CNC(=O)CSc1nnc(NC(=O)C2CC(=O)N(c3ccccc3OC)C2)s1 (configuration not stated) | active: 10 µM | –
37 | c1ccc2[nH]c(CCCCc3nc4ccccc4[nH]3)nc2c1 | inactive | –
38 | COc1cc2ncnc(NCc3ccc(C)o3)c2cc1OC | inconclusive: 35.5 µM [inhibitor, single point] | –
39 | O=S(=O)(c1ccc2nc(Nc3ccc(Br)cc3F)ccc2c1)N1CCCC1 | inactive | –
40 | O=C(NCCC1=CCCCC1)c1cc(S(=O)(=O)N2CCOCC2)ccc1F | inconclusive: 89.1 µM [inhibitor, partial curve, poor fit] | –
41 | OCC[C@@H]1C[C@H](O)[C@@H](O)[C@@]2(CCCc3ccccc3O2)O1 | active: 28.2 µM | –
42 | CCCOC(=O)c1ccc(NC(=O)c2nc3nc(C)cc(C)n3n2)cc1 | inactive | –
43 | O=c1cc(CSc2nnnn2-c2ccccc2)nc2scc(-c3ccccc3)n12 | – | inactive: -35.1% [at 12.7 µM]
44 | Cc1ccc(C)n1NC(=O)c1ccco1 | active: 39.8 µM | –
45 | Cc1ccccc1-c1noc(-c2ccc(NC3CCCC3)c([N+](=O)[O-])c2)n1 | inconclusive: 31.6 µM [inhibitor, partial curve, poor fit] | –
46 | COc1ccc(-n2nc(C(=O)N3CCN(c4cccc(C)c4)C(C)C3)c3c4ccccc4n(C)c3c2=O)cc1Cl (configuration not stated) | inactive | –
47 | COc1ccc(N2CCN(CCNC(=O)Nc3cccc(C)c3C)CC2)cc1 | inconclusive: 79.4 µM [inhibitor, partial curve, poor fit] | –
48 | NC(=O)CC(NC(=O)Cc1ccc(Br)cc1)c1ccc(NCCN2CCOCC2)c([N+](=O)[O-])c1 (configuration not stated) | inconclusive: 79.4 µM [inhibitor, single point] | –

Row | Compound | Potency | activity, negative = inhibition
49 | CCC(=S)/C=C1\Sc2ccc3ccccc3c2N1CCCS(=O)(=O)O | – | inconclusive: -107% [inhibitor]
50 | C=CCN(c1ccccc1)S(=O)(=O)c1cccc(C(=O)O)c1 | – | inactive: 7.32% [at 12.7 µM]
51 | CCCCn1c(C2CC(=O)N(c3ccc(OCC)cc3)C2)nc2ccccc21 (configuration not stated) | inactive | –
52 | CCC12CCCN3CCc4c(n(c5ccccc45)C(O)(C(=O)OC)C1)C32 (configuration not stated) | active: 50.1 µM | –
53 | Cc1ccc(/C=C/C(=O)N2CC(C)CC(C)C2)o1 (configuration not stated) | active: 8.91 µM | –
54 | CC(=O)N(C)c1ccc(NC(=O)Cc2cccs2)cc1 | inconclusive: 100 µM [inhibitor, partial curve, poor fit] | –
55 | CCOc1ccc(OCC)c(NS(=O)(=O)c2ccc3c(c2)CCCN3C(C)=O)c1 | inactive | –
56 | O=C(NCCNc1ccc2ccccc2c1)c1cccn2c(=O)c3sccc3nc12 | inconclusive: 7.94 µM [inhibitor, full curve] | –
57 | O=C(Cn1ccc([N+](=O)[O-])n1)NCCc1c[nH]c2ccccc12 | inconclusive: 31.6 µM [inhibitor, partial curve, poor fit] | –
58 | CCc1nnc(NC(=O)c2nc(SCc3ccc(F)cc3)ncc2Cl)s1 | inconclusive: 7.08 µM [inhibitor, partial curve, poor fit] | –
59 | O=c1[nH]c(=O)c2cc([N+](=O)[O-])cc([N+](=O)[O-])c2[nH]1 | inconclusive: 79.4 µM [inhibitor, partial curve, poor fit] | –
60 | NCCNS(=O)(=O)c1cccc2c(Cl)cccc12 | inactive | –
61 | COC(=O)CCCC(=O)N1CCC(n2nccc2NC(=O)CCOc2ccccc2)CC1 | inconclusive: 89.1 µM [inhibitor, single point] | –
62 | COc1ccc(C2=CC(c3ccco3)n3ncnc3N2)cc1 (configuration not stated) | active: 11.2 µM | –
63 | Cc1nc(NC(=O)c2ccccc2)sc1-c1csc(N)n1 | active: 8.91 µM | –
64 | COc1ccc(/C=N/Nc2cc(=O)n(C)c(=O)n2C)cc1OC | inactive | –
65 | CC(C)C[C@@H](C(=O)O)N(Cc1cccc(CN([C@@H](CC(C)C)C(=O)O)S(C)(=O)=O)c1)S(C)(=O)=O | inconclusive: 79.4 µM [inhibitor, single point] | –
66 | COc1ccc(CNC(=O)C(c2ccc(C)o2)N(C(=O)c2csnn2)c2ccc(C(C)C)cc2)cc1 (configuration not stated) | – | inconclusive: -55.9% [inhibitor]
67 | CC(C)CCNC(=O)c1ccc(Cl)c(N)c1 | inconclusive: 79.4 µM [inhibitor, partial curve, poor fit] | –
68 | Cc1ccc(-n2c(=S)[nH]c3c(oc4ccccc43)c2=O)cc1C | active: 79.4 µM | –
69 | COc1ccc(C2/C(=C(/O)c3ccccc3)C(=O)C(=O)N2CO)cc1 (configuration not stated) | inconclusive: 56.2 µM [inhibitor, single point] | –
70 | CC(=O)Nc1ccc(S(=O)(=O)N2CCN(c3ccc([N+](=O)[O-])cc3)CC2)cc1 | inconclusive: 8.91 µM [inhibitor, single point] | –
71 | COc1ccc(-c2coc3cc(OC)cc(O)c3c2=O)cc1 | – | inactive: 7.3% [at 0.501 µM]
72 | Cc1ccc[n+](CC(=O)c2ccc(NC(=O)c3ccccc3)cc2)c1 | inactive | –
